± gives the standard deviation of the averaged measurements. Some of the results follow.
Each sequence was assayed on PfAP2-I AP2 domain 3 (GST-tagged) (assay: gcPBM binding intensity (ln(normalized median fluorescence intensity)); higher = stronger DNA binding).
Outline: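 Binding of GST-tagged P. falciparum DNA-binding domains, expressed in E. coli and used at about 25 μg on average, was carried out for 1 h in 1× PBS containing 1% milk, 0.2 mg/ml BSA, 0.5% salmon testes DNA and 0.03% Triton X-100. The target was an Agilent 4 × 180k array of primer-extended double-stranded 36-bp intergenic genomic probes plus negative controls, read with Alexa488 anti-GST antibody at 488 nm. Binding intensity is the highest Masliner-normalised natural-log median intensity across replicate spots of either probe orientation.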

| Sequence | gcPBM binding intensity (ln) |
| --- | --- |
| AAATTAAAATAAAATAGTACATATATTTATATTTTT [XGTACX_site1687] | 7.59 ± 0.38 |
| TGTGTATAAAAAAAGTGTACACAAAGTAAGACTTTA [XGTACX_site3759] | 8.16 ± 0.45 |
| AGCAACTAAAAAGGATACCCCATTAAAAAAAAATTA [XGTACX_negctrl_site489] | 7.46 ± 0.5 |
| TACCAAAAAACGGCACGCATATGTATAAGAATATGT [XGTACX_negctrl_site470] | 7.96 ± 0.86 |
| AAATATATAAAAGTATGTACATATGAAAAATATATA [XGTACX_site6165] | 8 ± 0.52 |
| TTATATAACATAACGATGTTTCAAAACATATTGTAT [CACACA_negctrl_site997] | 7.71 ± 0.64 |
| TTATAAAGAATTAGGAGTACAAATGCATATATAATA [XGTACX_site6580] | 8.22 ± 0.45 |
| TTTAAAATTTAATTTTGTACATATACCAATTTTATT [XGTACX_site448] | 7.63 ± 0.46 |
| ATATAATATATGTTATGTACATAGTTTTTATTGTTC [XGTACX_site7438] | 7.74 ± 0.33 |
| AATATATAATCAGATGAATTTTTTTTTTTTTTTTCA [CACACA_negctrl_site534] | 7.21 ± 0.53 |
| ATATAAATATGAAAAAGTACAAGCCATCAAGAAATC [XGTACX_site8140] | 8.07 ± 0.53 |
| AATTTTTTATTCTTTGCATGTCATCATATATAATAT [TGCATGCA_site549] | 8.12 ± 0.69 |
| ATATAATGTTAGGGTAGAGGAAGTAACTAATATAAA [CACACA_negctrl_site1153] | 7.75 ± 0.77 |
| AATTAGCATAAATGGGTGCTACACAAAAATGCATGT [GTGCAC_site9640] | 8.94 ± 0.45 |
| TATAAATATTATAATTGTACATATTATAAAAATTTT [XGTACX_site2719] | 7.63 ± 0.33 |
| TCTCTTTTTCGTTCATGTACAAATAAATAAAAATAT [XGTACX_site6558] | 8.02 ± 0.26 |
| TTATATATATGACTTTGTACATATACATATTTTTTA [XGTACX_site4669] | 7.47 ± 0.61 |
| GTATATTTTATTTTATGTACATATTCATTTTTTATT [XGTACX_site561] | 8.3 ± 0.4 |
| TATTATATATATGCACGTACAAAAATAATAAAGGTA [XGTACX_site3506] | 9.38 ± 0.13 |
| ATTTTTTTACTGGATCCATATTTGCTTTTTTATTTA [CACACA_negctrl_site1108] | 8.04 ± 0.81 |
| GTGGATATATGTATATGTACATATGTATGTATATAT [XGTACX_site2412] | 8.11 ± 0.49 |
| TTTTTAATTTACTGTCATAGGTACCTTAACTTATCA [CACACA_negctrl_site1664] | 7.7 ± 0.54 |

| Sequence | gcPBM binding intensity (ln) |
| --- | --- |
| TATTAATAATTTTCATGTACATATGTATTTGTAATA [XGTACX_site858] | 7.68 ± 0.2 |
| ATATAATAAATGTCATGTACATACAACATTTTAACT [XGTACX_site7517] | 7.74 ± 0.58 |
| TGAATAAAGAAACACACACACATATATATATATGTA [CACACA_site17] | 7.54 ± 0.44 |
| TACATATACATATTGTGTACATAATAATTATTTATA [XGTACX_site7884] | 7.87 ± 0.39 |
| TACTTATGTTCGCACACATGCAAATTAAAAAAAAAA [TGCATGCA_site1023] | 9.26 ± 0.54 |
| TTAATTAAGAAACACACACACATATATATATATATT [CACACA_site2290] | 7.74 ± 0.57 |
| ATATGTATGTATGTATGTACTTATTTATTTATTAAT [XGTACX_site8018] | 7.75 ± 0.35 |
| TACATAAATTAAAACACACACACACTAATAAAAAAA [CACACA_site8712] | 8.05 ± 0.54 |
| TAGCTCGTTCGGAGCACACACATATATATATATATA [CACACA_site1948] | 9.76 ± 0.4 |
| ATTCAATATATATACACACACACTTTTAATAATTAA [CACACA_site3770] | 8.1 ± 0.43 |
| GTTTTATTTTGTTTCTATTTGACACATGTGATTATT [CACACA_negctrl_site1246] | 8.11 ± 0.61 |
| CATATATATAATTATTCACACAATAGTTAAAAGTAT [CACACA_site5302] | 8.01 ± 0.55 |
| TTTTTTTTTGAATATTGTACATATATATTACTTTTA [XGTACX_site5520] | 7.7 ± 0.66 |
| AAAAAATTATATAAATGTACATTTTGGCTAGACATG [XGTACX_site5977] | 7.68 ± 0.57 |
| AAAGAGAACAGAAGTACACACATGTTCTTTTAGTAA [CACACA_site5557] | 7.59 ± 0.49 |
| ATATTCTGCTGTTTAGTGCAATTATGAAATTATGAT | 9.85 ± 0.23 |
| TTTTTTTTTCTTTGGTGTACAATGTAATAGAAAATA [XGTACX_site227] | 8.11 ± 0.31 |
| AAAAAAAACAAACACACACACAAATATTTATATATT [CACACA_site436] | 7.55 ± 0.58 |
| TAAAAAGAAATGTAAAGTACAAATTTGAATAACATG [XGTACX_site7981] | 7.69 ± 0.59 |
| TAAAAAATAAAAATTGCACACTAAAAAATTACCCAC [CACACA_site5823] | 8.8 ± 0.33 |
| TTGATTTTTATTTTTAAAATAAATAAATTTCAAATG [TGCATGCA_negctrl_site199] | 7.35 ± 0.37 |
| ATATGTATTTATATATGTTTGATTTTTTTTTTTTTT [TGCATGCA_negctrl_site506] | 7.71 ± 0.26 |

Reference: the supplement of paper PMC11417369
